From PubChem BioAssay (NCI)
Values joined by “and” are separate entries in the source; they are usually repeats but may differ in a detail not shown here. Equal values may be shown once.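 Protocol summary: plate cells (96-well), add compound at 5 concentrations, incubate 48 h, interpolate endpoints linearly. The concentration for 50% growth inhibition is given as GI50. At the TGI there is no net growth.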 Active and inactive are the calls of the source.

System: HOP-92 NSCLC
Assay: NCI tumour cell line growth inhibition, 48 h

**Q.** With C[C@@H]1C[C@H](N)C[C@H](c2ccncc2NC(=O)c2ccc(F)c(-c3c(F)cccc3F)n2)C1 as the compound, how does the GI50 read?
**A.** inactive

**Q.** And the TGI?
**A.** 13.9 µM and 8.36 µM
